Measured values as given in PubChem BioAssay AID938 (National Center for Advancing Translational Sciences (NCATS), 2007).
Out of some 73,000 compounds screened, about 1,800 (2.5%) were called active. Inconclusive results, whose numbers are uncertain, are shown with a selection of clear calls. Calls follow the shape of the dose curve; as a rule, active = well fitted activation curve with a large enough effect; inconclusive = small, poorly fitted or top-dose-only effect; inactive = no such curve, though single readings can be large or run the other way. Potencies of inconclusive entries are left out as doubtful fits.

Experiment: qHTS Assay for Agonists of the Thyroid Stimulating Hormone Receptor: Activators of Intracellular cAMP Concentrations in Parental HEK 293; also: nearly all actives have a fitted effect of over 55% in size; as to activation: % of control where 0% means no effect
Conditions: parental HEK293 CNG cAMP sensor, membrane potential fluorescence; activation: at 57.1 µM (top of the series) unless noted
Summary of the method: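 Parental HEK 293 cells stably expressing a cAMP-gated CNG channel were loaded with membrane potential dye containing 100 uM RO 20-1724 for 60 min. Compound added for 30 min; depolarization read as fluorescence intensity at 590 nm.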
Potency is read from the fitted curve at half-maximal effect; tags tell the direction and shape of the fitted curve.

Row | SMILES | Potency | activation
1 | Cc1ccc(NC(=O)Cc2nn(C)c(=O)c3ccccc23)cc1F | inconclusive [activator, single point] | –
2 | COC(=O)Cn1cnc2c(nnn2-c2ccc(C)cc2)c1=O | – | inactive: -4.23% [at 2.29 µM]
3 | COc1ccccc1-c1cn(S(=O)(=O)c2ccc(F)cc2)nc1N | inconclusive [activator, full curve, poor fit] | –
4 | CN1C[C@H](c2ccccc2)C(O)([C@]2(c3ccccc3)CN(C)C[C@@H](c3ccccc3)C2=O)[C@H](c2ccccc2)C1 (stereo partly drawn) | – | inactive: 5.1% [at 11.4 µM]
5 | CCCn1c(=O)c2ccccc2n2c(SCC(=O)/C(C#N)=C(\C)N)nnc12 | inconclusive [activator, full curve, poor fit] | –
6 | CCCC(=O)Nc1cc(-c2nn(C)c(=O)c3ccccc23)ccc1N1CCCCC1 | inactive | –
7 | CN(C)c1ncc2nc(-c3ccc(F)cc3)c(=O)n(-c3ccccc3)c2n1 | inconclusive [activator, partial curve] | –
8 | CCOc1ccccc1NC(=O)CSc1nc2cccnc2n1C | inconclusive [activator, partial curve] | –
9 | COc1ccc(OC)c(NC(=O)CC(NCCC2=CCCCC2)C(=O)O)c1 (stereo not drawn) | inconclusive [activator, full curve, poor fit] | –
10 | CCN(CC)CCn1c(=S)[nH]c2cc(Cl)ccc2c1=O | inconclusive [activator, partial curve, poor fit] | –
11 | Cc1nc(SCn2nnc3ccccc3c2=O)nc(C)c1C | inactive | –
12 | Cc1noc(C)c1-c1cc(NCc2ccccc2)ncn1 | inconclusive [activator, single point] | –
13 | CCC(C)(C)NC(=O)C(c1cccn1C)N(C(=O)Cn1nnc2ccccc21)c1ccccc1OC (stereo not drawn) | inconclusive [activator, partial curve, poor fit] | –
14 | CC(Sc1ccc2c(c1)OCCO2)C(=O)Nc1ccc2c(c1)OCO2 (stereo not drawn) | inconclusive [activator, partial curve] | –
15 | Oc1ccc([C@@H]2CNCc3sccc32)cc1O | active: 31.6 µM | –
16 | COc1cc(C2NC(=O)NC(C)=C2C(=O)OC2CCCCC2)cc(Br)c1O (stereo not drawn) | inconclusive [activator, single point] | –
17 | CCOc1ccccc1N1CCN(S(=O)(=O)c2cccc3nsnc23)CC1 | inactive | –
18 | CCc1nn(C(C)C(=O)NC(C)CCc2ccco2)c(=O)c2cc3occc3n12 (stereo not drawn) | inconclusive [activator, partial curve] | –
